Results on one molecule are retold here after the supplement of paper PMC8728848.

Holding throughout (experiment): glycan array binding signal (z-score within array); higher = stronger binding
Holding throughout (conditions): glycan notation: IUPAC condensed, linker removed

In assay [1] the target is Gal(b1-4)GlcNAc(b1-3)Gal(b1-4)GlcNAc(b1-3)Gal(b1-4)GlcNAc. In short, it runs like this:
(§1)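 The binding signal is a Z-score computed within each array. Data were drawn from 3228 arrays in the Consortium for Functional Glycomics database, restricted to those with a known protein sequence. Scores were averaged over arrays of the same protein sequence at different concentrations or buffers, and over linkers, and negative values can be taken as non-binding.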

Assay [2] deals with Gal(b1-4)GlcNAc(b1-3)Gal(b1-4)GlcNAc(b1-3)Gal(b1-4)GlcNAc(b1-2)Man(a1-3)[Gal(b1-4)GlcNAc(b1-3)Gal(b1-4)GlcNAc(b1-3)Gal(b1-4)GlcNAc(b1-2)Man(a1-6)]Man(b1-4)GlcNAc(b1-4)GlcNAc. An outline of the steps:
as §1

Assay [3] concerns the target Gal(b1-4)GlcNAc(b1-3)Gal(b1-4)GlcNAc(b1-3)Gal(b1-4)GlcNAc(b1-2)Man(a1-3)[Gal(b1-4)GlcNAc(b1-3)Gal(b1-4)GlcNAc(b1-3)Gal(b1-4)GlcNAc(b1-2)Man(a1-6)]Man(b1-4)GlcNAc(b1-4)[Fuc(a1-6)]GlcNAc. An outline of the steps:
as §1

In assay [4] the target is Gal(b1-4)GlcNAc(b1-3)Gal(b1-4)GlcNAc(b1-3)Gal(b1-4)GlcNAc(b1-2)[Gal(b1-4)GlcNAc(b1-3)Gal(b1-4)GlcNAc(b1-3)Gal(b1-4)GlcNAc(b1-6)]Man(a1-6)[Gal(b1-4)GlcNAc(b1-3)Gal(b1-4)GlcNAc(b1-3)Gal(b1-4)GlcNAc(b1-2)Man(a1-3)]Man(b1-4)GlcNAc(b1-4)[Fuc(a1-6)]GlcNAc. In short, it runs like this: as §1
Assay [5] addresses Gal(b1-4)GlcNAc(b1-3)Gal(b1-4)GlcNAc(b1-3)Gal(b1-4)GlcNAc(b1-3)Gal(b1-4)GlcNAc(b1-2)Man(a1-3)[Gal(b1-4)GlcNAc(b1-3)Gal(b1-4)GlcNAc(b1-3)Gal(b1-4)GlcNAc(b1-3)Gal(b1-4)GlcNAc(b1-2)Man(a1-6)]Man(b1-4)GlcNAc(b1-4)GlcNAc. An outline of the steps:
as §1

For assay [6], the target named is Gal(b1-4)GlcNAc(b1-3)Gal(b1-4)GlcNAc(b1-3)Gal(b1-4)GlcNAc(b1-3)Gal(b1-4)GlcNAc(b1-2)Man(a1-3)[Gal(b1-4)GlcNAc(b1-3)Gal(b1-4)GlcNAc(b1-3)Gal(b1-4)GlcNAc(b1-3)Gal(b1-4)GlcNAc(b1-2)Man(a1-6)]Man(b1-4)GlcNAc(b1-4)[Fuc(a1-6)]GlcNAc. An outline of the steps: as §1
For assay [7], the target named is Gal(b1-4)GlcNAc(b1-3)Gal(b1-4)GlcNAc(b1-3)Gal(b1-4)GlcNAc(b1-3)Gal(b1-4)GlcNAc(b1-2)[Gal(b1-4)GlcNAc(b1-3)Gal(b1-4)GlcNAc(b1-3)Gal(b1-4)GlcNAc(b1-3)Gal(b1-4)GlcNAc(b1-6)]Man(a1-6)[Gal(b1-4)GlcNAc(b1-3)Gal(b1-4)GlcNAc(b1-3)Gal(b1-4)GlcNAc(b1-3)Gal(b1-4)GlcNAc(b1-2)Man(a1-3)]Man(b1-4)GlcNAc(b1-4)[Fuc(a1-6)]GlcNAc. An outline of the steps:
as §1

In assay [8] the target is Gal(b1-4)GlcNAc(b1-3)Gal(b1-4)GlcNAc(b1-3)Gal(b1-4)GlcNAc(b1-3)Gal(b1-4)GlcNAc(b1-3)Gal(b1-4)GlcNAc(b1-2)Man(a1-3)[Gal(b1-4)GlcNAc(b1-3)Gal(b1-4)GlcNAc(b1-3)Gal(b1-4)GlcNAc(b1-3)Gal(b1-4)GlcNAc(b1-3)Gal(b1-4)GlcNAc(b1-2)Man(a1-6)]Man(b1-4)GlcNAc(b1-4)GlcNAc. An outline of the steps: as §1
Assay [9] has as its target Gal(b1-4)GlcNAc(b1-3)Gal(b1-4)GlcNAc(b1-3)Gal(b1-4)GlcNAc(b1-3)Gal(b1-4)GlcNAc(b1-3)Gal(b1-4)GlcNAc(b1-2)Man(a1-3)[Gal(b1-4)GlcNAc(b1-3)Gal(b1-4)GlcNAc(b1-3)Gal(b1-4)GlcNAc(b1-3)Gal(b1-4)GlcNAc(b1-3)Gal(b1-4)GlcNAc(b1-2)Man(a1-6)]Man(b1-4)GlcNAc(b1-4)[Fuc(a1-6)]GlcNAc. An outline of the steps: as §1
Assay [10] concerns the target Gal(b1-4)GlcNAc(b1-3)Gal(b1-4)GlcNAc(b1-3)Gal(b1-4)GlcNAc(b1-3)Gal(b1-4)GlcNAc(b1-3)Gal(b1-4)GlcNAc(b1-2)[Gal(b1-4)GlcNAc(b1-3)Gal(b1-4)GlcNAc(b1-3)Gal(b1-4)GlcNAc(b1-3)Gal(b1-4)GlcNAc(b1-3)Gal(b1-4)GlcNAc(b1-6)]Man(a1-6)[Gal(b1-4)GlcNAc(b1-3)Gal(b1-4)GlcNAc(b1-3)Gal(b1-4)GlcNAc(b1-3)Gal(b1-4)GlcNAc(b1-3)Gal(b1-4)GlcNAc(b1-2)Man(a1-3)]Man(b1-4)GlcNAc(b1-4)[Fuc(a1-6)]GlcNAc. An outline of the steps: as §1

For assay [11], the target named is Gal(b1-4)GlcNAc(b1-3)Gal(b1-4)GlcNAc(b1-3)Gal(b1-4)GlcNAc(b1-3)Gal(b1-4)GlcNAc(b1-3)Gal(b1-4)GlcNAc(b1-3)Gal(b1-4)GlcNAc(b1-2)Man(a1-3)[Gal(b1-4)GlcNAc(b1-3)Gal(b1-4)GlcNAc(b1-3)Gal(b1-4)GlcNAc(b1-3)Gal(b1-4)GlcNAc(b1-3)Gal(b1-4)GlcNAc(b1-3)Gal(b1-4)GlcNAc(b1-2)Man(a1-6)]Man(b1-4)GlcNAc(b1-4)GlcNAc. In short, it runs like this: as §1
Assay [12] deals with Gal(b1-4)GlcNAc(b1-3)Gal(b1-4)GlcNAc(b1-3)GalNAc. In short, it runs like this:
as §1

The target of assay [13] is Gal(b1-4)GlcNAc(b1-3)Gal(b1-4)GlcNAc(b1-3)[Gal(b1-4)GlcNAc(b1-3)Gal(b1-4)GlcNAc(b1-6)]GalNAc. In short, it runs like this:
as §1

In assay [14] the target is Gal(b1-4)GlcNAc(b1-3)Gal(b1-4)GlcNAc(b1-6)[Gal(b1-3)]GalNAc. An outline of the steps:
as §1

The target in assay [15] is Gal(b1-4)GlcNAc(b1-3)Gal(b1-4)[Fuc(a1-3)]GlcNAc(b1-3)Gal(b1-4)[Fuc(a1-3)]GlcNAc. An outline of the steps:
as §1

Assay [16] deals with Gal(b1-4)GlcNAc(b1-3)GalNAc. An outline of the steps:
as §1

The target of assay [17] is Gal(b1-4)GlcNAc(b1-3)[Fuc(a1-3)GlcNAc(b1-6)]Gal(b1-4)Glc. In short, it runs like this:
as §1

Assay [18] addresses Gal(b1-4)GlcNAc(b1-3)[Gal(b1-4)GlcNAc(b1-6)]Gal(b1-4)GlcNAc. An outline of the steps: as §1
The target in assay [19] is Gal(b1-4)GlcNAc(b1-3)[GlcNAc(b1-6)]Gal(b1-4)GlcNAc. In short, it runs like this:
as §1

The list shows a part of the results.

B1: SGC, Q9M345 (protein)
chain: QNLNFTYNGFHPPLTDISLQGLATVTPNGLLKLTNTSVQKTGHAFCTERIRFKDSQNGNVSSFSTTFVFAIHSQIPTLSGHGIAFVVAPTLGLPFALPSQYIGLFNISNNGNDTNHIFAVEFDTIQSSEFGDPNDNHVGIDLNGLRSANYSTAGYRDDHDKFQNLSLISRKRIQVWIDYDNRSHRIDVTVAPFDSDKPRKPLVSYVRDLSSILLEDMYVGFSSATGSVLSEHFLVGWSFRLNGEAPMLSLSKLPKLPRFEPRRIS
As to B1, the “glycan array binding signal (z-score)” value in [1] was 0.343; in [2] it was 3.58; in assay [3], 2.91; in assay [4] it was 1.28; in assay [5], 4.57; in assay [6], 5.27. Besides, the “glycan array binding signal (z-score)” value in assay [7] was 8.45; in assay [8], 1.78; in assay [9], 1.76; in assay [10], 5.39; in assay [11] it was 0.604; in assay [12], -0.21. In addition, the “glycan array binding signal (z-score)” value was 1.95 in assay [13]; 2.26 in [14]; 0.252 in assay [15]; -0.094 in assay [16]; -0.36 in assay [17]; -0.25 in [18]. Also, the “glycan array binding signal (z-score)” value in [19] is -0.423.
